The IC50 comes from the fitted curve, where viability falls to half of the control; where the fit passes the top or lowest dose, that dose stands as a limit. AUC is the area under the same curve over the 256-fold range up to the top dose, as a fraction; the more sensitive the line, the further below 1. For part of these data: Any top dose called inferred was derived from the fitted curves, not read from the paper.
Assays:
Assay in all cases: Viability of human cancer cell lines after 72 h of drug (GDSC screen)
Doxorubicin = compound: COc1cccc2c1C(=O)c1c(O)c3c(c(O)c1C2=O)C[C@@](O)(C(=O)CO)C[C@@H]3O[C@H]1C[C@H](N)[C@H](O)[C@H](C)O1 [Doxorubicin]; settings: top dose 1.024 µM
Protocol: (§1)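 Human cancer cell lines in 384-well plates, medium with 10% serum, drug for 72 h over a 256-fold dose range (nine 2-fold or five 4-fold steps up to the top dose). Adherent lines were fixed and stained with the nucleic acid dye Syto60, suspension lines read with resazurin; signal relative to control wells, capped at 0 and 100%. One two-parameter sigmoid per drug and line, fitted in a mixed model over all curves with the slope shared within a line.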

OSI-027 = compound: COc1cccc2cc(-c3nc([C@H]4CC[C@H](C(=O)O)CC4)n4ncnc(N)c34)[nH]c12 [OSI-027]; settings: top dose 20 µM
Protocol: as §1

VX-11e = compound: Cc1cnc(Nc2ccc(F)cc2Cl)nc1-c1c[nH]c(C(=O)N[C@H](CO)c2cccc(Cl)c2)c1 [VX-11e]; settings: top dose 5.12 µM; top dose inferred
Protocol: as §1

Dimethyloxalylglycine = compound: COC(=O)CNC(=O)C(=O)OC [Dimethyloxalylglycine]; settings: top dose 4000 µM; top dose inferred
Protocol: as §1

CCT018159 = compound: CCc1cc(-c2n[nH]c(C)c2-c2ccc3c(c2)OCCO3)c(O)cc1O [CCT018159]; settings: top dose 10 µM; top dose inferred
Protocol: as §1

BIX02189 = compound: CN(C)Cc1cccc(N=C(c2ccccc2)c2c(O)[nH]c3cc(C(=O)N(C)C)ccc23)c1 [BIX02189]; settings: top dose 20 µM; top dose inferred
Protocol: as §1

TG101348 = compound: Cc1cnc(Nc2ccc(OCCN3CCCC3)cc2)nc1Nc1cccc(S(=O)(=O)NC(C)(C)C)c1 [TG101348]; settings: top dose 10.24 µM
Protocol: as §1

17-AAG = compound: C=CCNC1=C2C[C@@H](C)C[C@H](OC)[C@H](O)[C@@H](C)/C=C(\C)[C@H](OC(N)=O)[C@@H](OC)/C=C\C=C(/C)C(=O)NC(=CC1=O)C2=O [17-AAG]; settings: top dose 1 µM
Protocol: as §1

Vismodegib = compound: CS(=O)(=O)c1ccc(C(=O)Nc2ccc(Cl)c(-c3ccccn3)c2)c(Cl)c1 [Vismodegib]; settings: top dose 10 µM; top dose inferred
Protocol: as §1

UNC1215 = compound: O=C(c1ccc(C(=O)N2CCC(N3CCCC3)CC2)c(Nc2ccccc2)c1)N1CCC(N2CCCC2)CC1 [UNC1215]; settings: top dose 1 µM; top dose inferred
Protocol: as §1

Cell Line | AUC (Doxorubicin) | IC50 (Doxorubicin) | AUC (OSI-027) | IC50 (OSI-027) | AUC (VX-11e) | IC50 (VX-11e) | AUC (Dimethyloxalylglycine) | IC50 (Dimethyloxalylglycine) | AUC (CCT018159) | IC50 (CCT018159) | AUC (BIX02189) | IC50 (BIX02189) | AUC (TG101348) | IC50 (TG101348) | AUC (17-AAG) | IC50 (17-AAG) | AUC (Vismodegib) | IC50 (Vismodegib) | AUC (UNC1215) | IC50 (UNC1215)
NCI-H2452 (mesothelioma, adherent) | 0.883 | > 1.02 µM | 0.984 | > 20 µM | 0.984 | > 5.12 µM | 0.674 | 843 µM | 0.949 | > 10 µM | 0.983 | > 20 µM | 0.984 | > 10.2 µM | 0.633 | 0.157 µM | 0.984 | > 10 µM | 0.975 | > 1 µM
OE19 (oesophagus, adherent) | 0.567 | 0.1 µM | 0.984 | > 20 µM | 0.986 | > 5.12 µM | 0.851 | 3720 µM | 0.887 | > 10 µM | 0.986 | > 20 µM | 0.981 | > 10.2 µM | 0.415 | 0.0354 µM | 0.977 | > 10 µM | 0.985 | > 1 µM
COLO-679 (melanoma, adherent) | 0.308 | 0.0172 µM | 0.757 | 7.64 µM | 0.895 | > 5.12 µM | 0.464 | 198 µM | 0.938 | > 10 µM | 0.982 | > 20 µM | 0.936 | > 10.2 µM | 0.596 | 0.119 µM | 0.983 | > 10 µM | 0.983 | > 1 µM
MHH-PREB-1 (B-cell leukaemia, suspension) | 0.698 | 0.215 µM | 0.143 | 0.114 µM | 0.951 | > 5.12 µM | 0.395 | 133 µM | 0.894 | 9.86 µM | 0.7 | 4.26 µM | 0.898 | > 10.2 µM | 0.989 | > 1 µM | 0.985 | > 10 µM | 0.978 | > 1 µM
COLO-680N (oesophagus, adherent) | 0.441 | 0.043 µM | 0.884 | > 20 µM | 0.985 | > 5.12 µM | 0.503 | 255 µM | 0.925 | > 10 µM | 0.982 | > 20 µM | 0.908 | > 10.2 µM | 0.807 | 0.629 µM | 0.981 | > 10 µM | 0.985 | > 1 µM
MFH-ino (soft tissue, adherent) | 0.171 | 0.00517 µM | 0.691 | 4.74 µM | 0.957 | > 5.12 µM | 0.626 | 595 µM | 0.874 | > 10 µM | 0.968 | > 20 µM | 0.929 | > 10.2 µM | 0.7 | 0.255 µM | 0.983 | > 10 µM | 0.981 | > 1 µM
RCC10RGB (kidney, adherent) | 0.946 | > 1.02 µM | 0.736 | 11.8 µM | 0.915 | > 5.12 µM | 0.647 | 952 µM | 0.951 | > 10 µM | 0.819 | > 20 µM | 0.931 | > 10.2 µM | 0.948 | > 1 µM | 0.964 | > 10 µM | 0.967 | > 1 µM
OCUM-1 (stomach, adherent) | 0.582 | 0.11 µM | 0.841 | 16.3 µM | 0.962 | > 5.12 µM | 0.902 | > 4000 µM | 0.743 | 3.4 µM | 0.985 | > 20 µM | 0.969 | > 10.2 µM | 0.553 | 0.0886 µM | 0.987 | > 10 µM | 0.985 | > 1 µM
CP66-MEL (melanoma, adherent) | 0.899 | > 1.02 µM | 0.813 | 12.7 µM | 0.937 | > 5.12 µM | 0.591 | 462 µM | 0.954 | > 10 µM | 0.985 | > 20 µM | 0.984 | > 10.2 µM | 0.794 | 0.534 µM | 0.986 | > 10 µM | 0.984 | > 1 µM
EBC-1 (lung squamous cell carcinoma, adherent) | 0.529 | 0.0776 µM | 0.51 | 1.34 µM | 0.902 | > 5.12 µM | 0.479 | 218 µM | 0.851 | 9.19 µM | 0.982 | > 20 µM | 0.885 | > 10.2 µM | 0.282 | 0.0138 µM | 0.95 | > 10 µM | 0.977 | > 1 µM
P32-ISH (Burkitt lymphoma, suspension) | 0.586 | 0.103 µM | 0.192 | 0.212 µM | 0.979 | > 5.12 µM | 0.34 | 102 µM | 0.995 | > 10 µM | 0.902 | 14.5 µM | 0.854 | 5.16 µM | 0.995 | > 1 µM | 0.983 | > 10 µM | 0.992 | > 1 µM
NCI-H1417 (small cell lung carcinoma, suspension) | 0.746 | 0.379 µM | 0.752 | 7.74 µM | 0.942 | > 5.12 µM | 0.73 | 1300 µM | 0.893 | > 10 µM | 0.944 | > 20 µM | 0.832 | 8.36 µM | 0.981 | > 1 µM | 0.976 | > 10 µM | 0.972 | > 1 µM

From the supplement of paper PMC4967469
